The values that follow come from PubChem BioAssay AID488969 (Vanderbilt High Throughput Screening Facility, 2010).

Whole data set: some 110,000 compounds, median “z-score” near -0.1, cut for the highest 2% near 2. Some of the results follow. Active and inactive are the calls of the source.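 Rule for the calls: active = z-score in the third read window above 3 or below -3; inactive = the rest.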

The assay has as its target Metabotropic glutamate receptor 8 (Rattus norvegicus) (UniProt P70579). Put plainly: rat mGluR8 modulators via GIRK flux, primary screen, cell-based, thallium flux, HTS (AID 488969). The settings on record: HEK293 rat mGluR8, GIRK (G protein-gated inwardly rectifying potassium channel) thallium flux, FluoZin2; at 10 µM; stronger effect = higher value; submaximal glutamate (EC20) added with thallium.
Sequence of UniProt P70579 (P70579 whole entry, looked up): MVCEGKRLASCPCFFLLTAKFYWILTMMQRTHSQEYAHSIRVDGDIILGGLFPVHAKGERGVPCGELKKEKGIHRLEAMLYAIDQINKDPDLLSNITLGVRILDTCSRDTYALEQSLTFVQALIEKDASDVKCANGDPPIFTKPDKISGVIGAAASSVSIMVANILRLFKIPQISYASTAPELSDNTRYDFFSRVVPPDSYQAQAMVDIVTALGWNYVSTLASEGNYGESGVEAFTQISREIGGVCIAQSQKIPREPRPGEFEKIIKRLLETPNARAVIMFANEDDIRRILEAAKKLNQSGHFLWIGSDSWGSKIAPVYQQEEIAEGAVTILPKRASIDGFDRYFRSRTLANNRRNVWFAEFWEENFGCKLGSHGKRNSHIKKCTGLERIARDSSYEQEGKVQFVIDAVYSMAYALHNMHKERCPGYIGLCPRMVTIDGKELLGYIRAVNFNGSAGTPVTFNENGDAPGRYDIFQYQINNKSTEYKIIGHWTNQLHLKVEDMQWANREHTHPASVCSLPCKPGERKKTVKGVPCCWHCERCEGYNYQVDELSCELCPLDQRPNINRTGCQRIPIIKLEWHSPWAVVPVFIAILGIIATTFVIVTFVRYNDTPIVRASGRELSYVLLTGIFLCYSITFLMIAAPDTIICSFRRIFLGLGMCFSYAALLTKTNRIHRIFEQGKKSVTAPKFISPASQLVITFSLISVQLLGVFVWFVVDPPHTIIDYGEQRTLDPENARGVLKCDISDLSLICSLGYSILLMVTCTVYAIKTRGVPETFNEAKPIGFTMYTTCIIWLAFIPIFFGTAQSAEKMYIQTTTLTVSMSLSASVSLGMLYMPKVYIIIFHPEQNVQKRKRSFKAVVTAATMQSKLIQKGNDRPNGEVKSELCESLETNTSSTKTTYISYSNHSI
The compound `CCCCNC(=O)CCn1c(=O)c2ccccc2n(Cc2cc(C)ccc2C)c1=O` displayed a z-score of -0.588.

As for `CN1C(=S)SC(/[N+]([O-])=C\c2cccs2)C1(C)C` (stereo unspecified), the z-score was -0.0661.

The compound `COC(=O)NCCOc1cc(C)ccc1C` showed a z-score of 0.661.

In the case of `Cc1cc(SCC(=O)c2cccs2)n2nc(C)c(-c3ccccc3)c2n1`, the z-score was -0.14.

With `Cc1[nH]c2ccccc2c1CC(=O)O`, the z-score is -0.275.

Regarding `COc1ccc(N2CCN(C(c3cccs3)C(C)NC(=O)c3ccco3)CC2)cc1` (stereo unspecified), the z-score was -0.0565.

On to `CC(C)c1ccc(/C=N/n2nnnc2Nc2ccccc2)cc1`, for which the z-score was -0.0719.

Compound `CC(C)NC(=O)NC(=O)COC(=O)c1ccc(OC(F)(F)F)cc1` registered a z-score of -0.107.

`Cc1cc(OC(=O)N2CCCCC2)cc(C)c1Cl` came in with a z-score of -0.184.

As for `COc1ccc(NC(=O)c2cc(-c3cccnc3)nc3c(C)c(C)ccc23)c(OC)c1`, the z-score was -0.0817.

The compound `CCc1cccc2c(C(=O)COC(=O)c3ccc(O)cc3)c[nH]c12` yielded a z-score of -0.12.

On to `Cc1ccc(-n2c(C)cc(C(=O)COc3cccnc3[N+](=O)[O-])c2C)cc1`, for which the z-score is -0.132.

In turn, `Cc1cc(=O)[nH]c(=S)n1-c1ccccc1` came in with a z-score of -0.0166.

For `Cc1ccc(CSc2nc3ccncc3[nH]2)cc1`, the z-score worked out at 2.46.

In turn, `CC1=NN(c2ccccc2)C(=O)/C1=C/c1cc2cc(C)ccc2nc1N1CCCCC1` gave a z-score of -0.251.

Compound `Cc1ccccc1C(=O)N1CCCN(C(=O)c2ccccc2C)CC1` gave a z-score of 0.249.

As to `Cc1ccc(N2CC(C(=O)N3CCc4ccccc4C3)CC2=O)cc1` (stereo unspecified), the z-score was -0.35.

Turning to `CC(C)N(C(=O)CSc1nnc(NC(=O)C2CCC2)s1)C(C)C`, the z-score amounted to 0.0659.

In turn, `CCc1c(C(=O)Nc2cc(C)ccc2OC)[nH]c(C)c1C(C)=O` registered a z-score of -0.151.

The compound `O=[N+]([O-])c1cccc(/C=N/n2cnnc2)c1O` gave a z-score of 0.0535.

In turn, `Cc1ccc(OCC(=O)Nc2cc(S(=O)(=O)N3CCCCC3)ccc2C)c([N+](=O)[O-])n1` came in with a z-score of -0.377.

As for `O=C(Nc1nc(-c2ccccc2)cs1)C1c2ccccc2Oc2ccccc21`, the z-score was 0.57.

Turning to `Cc1cc(C)n(-c2nc3c(c(=O)[nH]c(=O)n3C)n2CC(O)COc2ccccc2)n1` (stereo unspecified), the z-score is -0.429.

For `Cc1cc(Cl)c(S(=O)(=O)N2CCN(c3cccc(C)c3C)CC2)cc1OCC(N)=O`, the z-score is 0.0105.

For `Cc1ccc2cc(CN(Cc3ccco3)C(=O)c3ccccc3)c(=O)[nH]c2c1C`, the z-score is -0.385.

The compound `CNc1nc2c(c(=O)n(C)c(=O)n2C)n1Cc1ccccc1` came in with a z-score of 0.359.

On to `CCc1ccc(N2C(=O)c3ccc4c5c(ccc(c35)C2=O)CC4)cc1`, for which the z-score is -0.587.

Consider `Cn1c(N2CCC(C(N)=O)CC2)nc2c1c(=O)n(Cc1ccc(Br)cc1)c(=O)n2C`, for which the z-score was -0.445.

In turn, `Cc1ccc(S(=O)(=O)N2CC=C(c3ccc(F)cc3)CC2)cc1` showed a z-score of -0.212.

Take `O=C(Cc1cccs1)N1CCCC(c2nc3c(nnn3Cc3ccc(F)cc3)c(=O)[nH]2)C1` (stereo unspecified): the z-score was -0.894.

For `Cc1noc(/C=C/N(C)C)c1S(=O)(=O)N1CCCC(C(=O)NCc2ccc(F)cc2)C1` (stereo unspecified), the z-score came to 2.21.

For the compound `CC(C)CC(=O)NN1CCCCC1`, the z-score is -0.14.

As for `CC(=O)c1cccc(N(CC(=O)Nc2ccc(F)cc2)S(C)(=O)=O)c1`, the z-score was determined as 2.52.

`CSc1cccc(NC(=O)CCCOc2ccc(Cl)cc2C)c1` gave a z-score of -0.0465.

For `O=C(Nc1ccc(N2CCN(C(=O)c3cccs3)CC2)c(Cl)c1)c1ccco1`, the z-score worked out at 0.00632.

`O=C(N/N=C/C=C\c1ccccc1[N+](=O)[O-])c1cccs1` yielded a z-score of -0.399.

As to `O=[N+]([O-])c1ccc2nccn2c1`, the z-score was 0.437.

On to `COc1ccc(-n2c(C)cc(C(=O)CN3C(=O)c4ccccc4C3=O)c2C)cc1`, for which the z-score is 0.595.

With `Cc1onc(-c2ccccc2)c1C(=O)Nc1ccccc1C#N`, the z-score stood at 0.156.

As to `O=C(O)C1CCCN(S(=O)(=O)c2cccs2)C1` (stereo unspecified), the z-score was -0.00858.

In turn, `CCCCc1nc2ccccc2n1CC(=O)NN` returned a z-score of -0.259.

Turning to `Cn1cnnc1SCC(=O)c1ccc(OC(F)F)cc1`, the z-score was found to be 0.0243.

`COc1ccc(-c2nc(C#N)c(NCCCn3ccnc3)o2)cc1OC` had a z-score of -0.216.

Compound `O=C(COC(=O)c1ccccc1Nc1ccccc1)c1ccccc1` yielded a z-score of 0.203.

For the compound `C=CCOc1ccc(Cl)cc1C(=O)O`, the z-score is 0.196.

On to `O=C(NCCN1CCCCC1)Nc1ccc(F)c(Cl)c1`, for which the z-score came to 0.39.

Compound `COc1ccc(-c2nnc3sc(COc4ccc(C)cc4)nn23)cc1` registered a z-score of -0.0659.

With `O=C(CC1C(=O)N(c2ccc(F)cc2)C(=O)N1Cc1ccccn1)Nc1ccccc1` (stereo unspecified), the z-score amounted to 0.264.

Consider `Cc1ccc(C(C)C)c(OCC(=O)Nn2c(=O)[nH]c3ccccc3c2=O)c1`, for which the z-score stood at 0.279.

In turn, `Cc1ccc(NC(=O)COC(=O)CCNS(=O)(=O)c2ccc(C)c(C)c2)cc1` showed a z-score of -0.0448.

For `COCCN=c1scc(-c2cccs2)n1/N=C/c1ccc(O)c(O)c1O`, the z-score was determined as 2.93.

The compound `Cc1cc(NC(=O)CSc2cn(CCNC(=O)c3ccc(F)cc3)c3ccccc23)no1` displayed a z-score of -0.942.

For the compound `CC(C)N1CCN(c2ccncc2S(=O)(=O)N2CCOCC2)CC1`, the z-score was -0.0279.

In turn, `Cc1ccc(CSc2nc3c(c(N(C)C)n2)CCCC3)cc1` came in with a z-score of -0.259.

`CCOc1cc(CO)c(Br)cc1OCC(=O)O` returned a z-score of -0.27.

With `O=C1Nc2ccc(F)cc2C12Nc1ccccc1-c1nnc(SCc3ccccc3Cl)nc1O2` (stereo unspecified), the z-score is -0.267.

In turn, `Cc1nc(SCC(=O)Nc2c(C)n(C)n(-c3ccccc3)c2=O)n[nH]1` had a z-score of -0.356.

`CCCn1nnc(NC(=O)COc2cc(C)ccc2C(C)C)n1` had a z-score of 2.14.

For the compound `CCOC(=O)COc1c(Br)cc(C2NC(=O)NC(C)=C2C(C)=O)cc1OC` (stereo unspecified), the z-score amounted to 1.29.

For the compound `CCOC(=O)c1c(C)c(C(=O)NCCN2CCOCC2)c(C)n1CC`, the z-score was -0.0665.

`CSc1ccccc1-c1nnc(-c2ccc(C)cc2)o1` returned a z-score of -0.132.

With `COc1ccc(N=Cc2ccc[nH]2)cc1`, the z-score came to 0.124.

`COc1ccc(S(=O)(=O)N(C)C2CCS(=O)(=O)C2)cc1OC` (stereo unspecified) gave a z-score of -0.098.

As to `COc1ccc2c(c1)N(C(=O)CSc1n[nH]c(C)n1)C(C)(C)C=C2C`, the z-score is -0.194.

In turn, `Cc1ccc(N(C(=O)Cn2nnc(-c3ccc(F)cc3)n2)C(CC(C)C)C(=O)NCC2CCCO2)cc1` (stereo unspecified) registered a z-score of -0.262.

The compound `CCSc1ncnc2c(C#N)c3n(c12)CCCCC3` came in with a z-score of -0.627.

Regarding `COc1ccc(OC)c(C2C(C(N)=O)=C(C)Nc3nc(-c4cccc(Cl)c4)nn32)c1` (stereo unspecified), the z-score worked out at 1.16.

In turn, `COc1ccc(/C=C/c2nc3ccccc3n2Cc2ccc(OC)c(OC)c2)cc1` returned a z-score of -0.737.

In turn, `Cc1ccccc1-n1c(Cc2cccs2)n[nH]c1=S` returned a z-score of -0.1.

For `O=C(NC1CCCC1)C(c1ccc(F)cc1)N(Cc1ccc(Cl)cc1)C(=O)CCl` (stereo unspecified), the z-score is -0.114.

`COc1ccc(S(=O)(=O)N(C)CC(=O)N2CCC(C)CC2)cc1Cl`: the z-score is -0.133.

Consider `Cc1ccc(NC(=O)C2CCCN(S(=O)(=O)c3cnc[nH]3)C2)c(Br)c1` (stereo unspecified), for which the z-score is -0.33.

In the case of `COc1ccccc1CN1CCN(C(=O)c2ccncc2)CC1`, the z-score is -0.336.

`CCOc1ccc(N2C(=O)c3cccnc3C2=O)cc1` registered a z-score of -0.0144.

Regarding `Cc1cc(=O)c2ccccc2n1CC(=O)NCc1ccccc1`, the z-score is -0.147.

As to `COCCn1c(=NC(=O)c2cc3ccccc3oc2=O)sc2cc(S(N)(=O)=O)ccc21`, the z-score is -0.106.

On to `S=C(NCCCN1CCOCC1)NCCCN1CCOCC1`, for which the z-score is -0.101.

Consider `COC(=O)CN(CCc1ccccc1)S(=O)(=O)c1ccc(OC)c(OC)c1`, for which the z-score is -0.251.

As for `Cc1csc(N(C)C(=O)CSc2nnc(COc3cccc4ccccc34)o2)n1`, the z-score was 0.64.

Turning to `Cc1ccc(N(CC(N)=O)C2SC(=O)N(Cc3cccc(C(=O)O)c3)C2=O)cc1` (stereo unspecified), the z-score turned out to be 0.658.

With `CC(C)OC(=O)c1c(N)n(CCCN2CCOCC2)c2nc3ccccc3nc12`, the z-score is -0.444.

With `CC(C)Oc1cc2oc(=O)c3c(c2cc1Cl)CCC3`, the z-score came out at 0.087.

`O=C(c1ccco1)[C@@H]1[C@@H]2C(=O)N(c3ccccc3)C(=O)[C@@H]2C2c3ccccc3C=CN21` (stereo partly specified): the z-score came out at 0.151.

Take `Cc1nc(CNS(=O)(=O)c2cc(F)ccc2F)cs1`: the z-score turned out to be 0.38.

Compound `CC(C)Oc1ccc2ccccc2c1C=O` came in with a z-score of -0.494.

In turn, `CCCCCc1c(C)nc(Nc2nc(C)c3cc(OC)ccc3n2)[nH]c1=O` yielded a z-score of -0.0375.

`CCN(CC)CCNC(=O)c1cn(-c2ccccc2)nc1-c1cccs1`: the z-score was -0.489.

`O=C1CC(c2cccc(F)c2)C2=C(CCCC2=O)N1` (stereo unspecified) showed a z-score of -0.621.

`Cc1ccccc1-n1c(Cn2c(=O)sc3ccccc32)nnc1SCC(=O)NCC1CCCO1` (stereo unspecified) returned a z-score of -0.139.

`O=C(COc1ccc(S(=O)(=O)N2CCCC2)cc1)NCCC1=CCCCC1` came in with a z-score of 0.0235.

In turn, `Cc1ccc(/C(N)=N/OC(=O)c2ccco2)cc1` registered a z-score of -0.0197.

In turn, `O=C(COc1ccc(F)cc1)c1ccc2c(c1)CCCC2` registered a z-score of -0.307.

Take `CCc1cc(OCCN2C(=O)NC(C)(C)C2=O)ccc1Cl`: the z-score was -0.278.

`Cc1ccc(NC(=O)C2C3CC4OC(=O)C2C4C3)cc1Cl` (stereo unspecified) returned a z-score of 0.462.

Turning to `Cc1c(OC(=O)c2ccc([N+](=O)[O-])cc2)c2c(c[n+]1C)COC(C)(C)OC2`, the z-score stood at 0.225.

Consider `Cc1ccsc1C1Nc2ccccc2-c2nc3ccccc3n21` (stereo unspecified), for which the z-score is -0.965.

In the case of `Cc1ccc(CSCC(=O)N/N=C/c2cccc(OC3CSC3)c2)cc1`, the z-score was 0.825.

`CCC(C)(c1ccc(C=O)s1)c1ccc(C=O)s1` displayed a z-score of -0.34.

For `CCC1(CC)Cc2ccccc2C(=C(C#N)C#N)N1`, the z-score was -0.603.

In turn, `COCCNCc1ccccc1` returned a z-score of -0.504.

In turn, `CCOC(=O)N1CCN(C(=O)c2cnn3c(C)c(Cc4ccc(C)cc4)c(C)nc23)CC1` registered a z-score of -1.58.

Compound `CC1(C)Oc2ccc(NC(=O)C3COc4ccccc4O3)cc2O1` (stereo unspecified) returned a z-score of -0.379.

With `CC(=O)C1=C(O)C(=O)N(CCN(C)C)C1c1ccc(Cl)cc1` (stereo unspecified), the z-score came out at 0.396.

For `CC(NC(=O)Nc1ncccn1)(C(F)(F)F)C(F)(F)F`, the z-score came to 0.179.

Turning to `COc1ccc(C(=O)NNC(=O)C(Cc2ccc(O)cc2)NC(=O)c2ccccc2NC(=O)c2ccc(OC)cc2)cc1` (stereo unspecified), the z-score is 1.4.

With `Cc1ccc([N+](=O)[O-])cc1NC(=S)NC(=O)c1ccco1`, the z-score is active: 7.69.

As for `CCCN(S(=O)(=O)c1ccc(OCC)cc1)S(=O)(=O)c1cccs1`, the z-score is 0.473.

Regarding `O=C(NCc1ccc(F)cc1)C1CCN(S(=O)(=O)c2ccc3c(c2)OCCCO3)CC1`, the z-score is -0.294.

In turn, `O=C(c1ccc2c(=O)n3c(nc2c1)CCCCC3)N1CCN(C(c2ccccc2)c2ccccc2)CC1` registered a z-score of -0.421.

Take `CN(c1ccc(C(=O)O)cc1)S(=O)(=O)c1ccc(Cl)cc1`: the z-score was -0.198.

Turning to `O=C(O)CCS(=O)(=O)c1cccc2cccnc12`, the z-score is -0.0363.
